Results from PubChem BioAssay AID1508623 (National Center for Advancing Translational Sciences (NCATS), 2021).
The whole screen tested about 48,000 compounds, of which about 450 (0.94%) were called active. Inconclusive results (about 19%) are left out. The call rests on the fitted dose curve; in most records, active means well fitted inhibition curve with a large enough effect; inconclusive means small, poorly fitted or top-dose-only effect; inactive means no such curve, though single readings can be large or run the other way. The list shows a part of the results.

Test: Primary qHTS for Identification of Small Molecule Inhibitors of Huntingtin Promoter Activity; further: nearly all actives have a fitted effect of over 50% in size
Conditions: HEK293 HTT promoter firefly luciferase reporter (activity 0% = vehicle and -100% = no light), 24 h; series mostly up to 57.5 µM; activity change, negative = inhibition: at the top concentration
Procedure, shortened: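 Firefly luciferase signal from promoter-reporter HEK293 cells was scaled between vehicle (0%) and zero RLU (-100%). Compounds were tested at final concentrations of up to 57.5 uM over 24 h at 37 degrees C. PTC124 at 50 uM final served as control inhibitor.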

Compound	activity change, negative = inhibition
Cc1ccc2nc(CSc3nnc(NC(=O)c4cccc(Br)c4)s3)cc(=O)n2c1	inactive: 31.1%
COc1ccc(-c2c(C)nn3c(N4CCN(c5ccccc5)CC4)cc(C)nc23)cc1OC	inactive: -5.05%
COc1ccc(NC(=O)CC2C(=O)N(c3ccc(F)cc3)C(=O)N2Cc2ccc3c(c2)OCO3)cc1 (configuration not stated)	inactive: -21.3%
C[C@@H](O)[C@H]1C(=O)N2C(C(=O)O)=C(S[C@@H]3CN[C@H](C(=O)N(C)C)C3)[C@H](C)[C@H]12	inactive
CCCn1c(=N)c(C(=O)NC2CCCC2)cc2c(=O)n3cccc(C)c3nc21	inactive: -6.59%
COc1ccc(/C=C(/C#N)c2nc(-c3ccc(-c4ccccc4)cc3)cs2)cc1OC	inactive: -9.91%
CCc1cccc(C)c1NC(=O)c1cc(S(=O)(=O)N2CCOCC2)cn1C	inactive: -0.557%
COc1cc(NC(=O)CCn2cnc3ccccc3c2=O)cc(OC)c1	inactive: -12.2%
CCCCSCCCNC(=O)c1cn(CC)c2ccc(S(=O)(=O)N3CCCCCC3)cc2c1=O	inactive: -9.07%
COc1ccc(OCCn2c(C)nc3cc(C)c(C)cc32)cc1	inactive: -27.1%
CCCOc1ccc(C(=O)Nc2cc(-c3nc4cc(C)cc(C)c4o3)ccc2C)cc1	inactive: -13.2% [at 11.5 µM]
CN1C(=O)c2ccccc2Sc2ccc(NC(=O)N3CCN(c4ccccc4F)CC3)cc21	inactive: -16.6%
CC(C)NC(=O)C1CCN(C(=O)N2CCOc3ccc(Cl)cc32)CC1	inactive: -3.01%
Cc1cc(C)c2c(-n3cccc3)c(C(=O)NCCCN3CCCCC3C)sc2n1 (configuration not stated)	inactive: -3.37%
O=C(O)[C@H](O)[C@@H](O)[C@H](O[C@@H]1O[C@H](CO)[C@H](O)[C@H](O)[C@H]1O)[C@H](O)CO	inactive: 3%
COc1cc(-c2noc(-c3cc(C(C)C)[nH]n3)n2)cc(OC)c1OC	inactive: 11.7%
Cc1nn(S(=O)(=O)c2ccc(Cl)cc2)c(C)c1S(=O)(=O)N1CCCCCC1	inactive: -6.77%
CC(=O)Nc1nonc1-c1nnc(SCc2ccc(Cl)cc2)n1C	inactive: -19.7%
CCOC(=O)c1c(NC(=O)c2cc(=O)c3c(C)cc(C)cc3o2)sc(C(C)=O)c1C	inactive: 5.16%
Cc1cc(=O)c2cc(C(=O)Nc3ccccc3)ccc2[nH]1	inactive: 18.7%
Cc1ccc2cccc(NC(=O)c3ccc(-c4ccc(Br)cc4)o3)c2n1	inactive: -4.22%
CCc1ccc(-n2c(-c3ccccc3)c(C)n3c4c(=O)n(C)c(=O)n(C)c4nc23)cc1	inactive: -15%
Cc1ccc(O)c(-n2nc3ccccc3n2)c1	inactive: 14%
COc1cccc(N2C(=O)N(CC(=O)NCc3cccc(OC)c3OC)c3ccccc3S2(=O)=O)c1	inactive: -23.5%

Compound	activity change, negative = inhibition
CCc1ccccc1Nc1ncnc2c1nc1n2CCCC1	inactive: 11.6%
COc1ccccc1N1CCN(C(=O)CCS(=O)(=O)c2cc(Br)cc3c2N(C(=O)C2CC2)CC3)CC1	inactive: -10.1%
CC(=O)O[C@H]1C[C@@H]2CC[C@@H]3[C@H](CC[C@@]4(C)[C@H]3C[C@H]([N+]3(C)CCCCC3)[C@@H]4OC(C)=O)[C@@]2(C)C[C@@H]1N1CCCCC1	inactive: 14.7%
O=C(Nc1ccc(F)cc1)c1cccn1-c1nnc(N2CCCCC2)s1	inactive: 1.16%
COc1ccc2oc(=O)c(C(=O)NCCc3c(C)[nH]c4ccc(Br)cc34)cc2c1	inactive: -10.6%
O=C(CSc1nnc(CNC(=O)c2ccccc2)n1-c1cccc(Cl)c1)Nc1ccccc1F	inactive: -1.58%
Cc1ccc(-c2csc(/C(C#N)=C/c3ccccc3Cl)n2)cc1	inactive: 36.5%
Cc1cn2c(=O)cc(COc3ccccc3NC(=O)c3ccccc3C)nc2s1	inactive: 5.18%
Cc1cc(C)cc(OCC2CNC(=O)O2)c1 (configuration not stated)	inactive: -6.3%
O=C(NCc1cccc(F)c1)C1CCN(C(=O)c2sccc2-n2cccc2)CC1	inactive: -14.7%
O=C(Nc1cc(NC(=O)c2ccccc2Cl)ccc1Cl)c1ccccc1	inactive: -2.06%
COc1ccc(CNC(=O)c2ccc(Cn3c(=O)c4cccn4c4cccnc43)cc2)cc1OC	inactive: -5.1%
CCOCCCNC(=O)NC(CCC(C)C)c1c(-n2cccc2)sc2c1CCN(C)C2 (configuration not stated)	inactive: -31.1%
Cc1ccc(OCC(=O)Nc2ccc(S(=O)(=O)Nc3ncccn3)cc2)c(C(C)(C)C)c1	inactive: -12.2%
CN1CCN(CCCNC(=O)c2cnn(-c3ccccc3)c2-n2cccc2)CC1	inactive: -12.6%
O=c1c2sc3ccccc3c2n(Cc2cccc(C(F)(F)F)c2)c(=O)n1Cc1ccco1	inactive: -20.8%
CC(C(O)c1ccccc1)N(C)CCOC(c1ccccc1)c1ccccc1 (configuration not stated)	inactive: -25.6%
CC(C)(C)C(=O)CSc1nc2ccsc2c(=O)n1Cc1ccccc1F	inactive: -15.1%
Cc1ccc(C)c(-c2nc(Cn3c(=O)cc(-c4ccccc4)c4c(C)nn(C)c43)c(C)o2)c1	inactive: -22.9%
Cc1cccc(NC(=O)C2CCCN(S(=O)(=O)c3cccc4nonc34)C2)c1C (configuration not stated)	inactive: -19.3%
Cc1cc2oc(=O)c(CC(=O)NCCc3ccccc3)c(C)c2c2occ(C(C)(C)C)c12	inactive: 1.47%
Cc1cccc(N2CCN(C(=O)c3cn(C4CCCCC4)c(=O)c4c3c3ccccc3n4C)CC2)c1C	inactive: -27.8%
COc1cc2c(cc1NC(=O)COc1cc(C)ccc1C)oc1ccccc12	inactive: -14.1%
